# Results as given in the supplement of paper PMC8728848.
# The other results are listed elsewhere or left out.
# Legend:
# Assay in all cases: glycan array binding signal (z-score within array); higher = stronger binding
# Conditions in all cases: glycan notation: IUPAC condensed, linker removed
# [1] = target: Neu5Ac(a2-6)Gal(b1-4)GlcNAc(b1-3)Gal(b1-4)[Fuc(a1-3)]Glc
# Outline: (§1)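 From the Consortium for Functional Glycomics database, 3228 arrays were curated, keeping only those whose protein sequence was available. Binding is given as a within-array Z-score averaged across arrays sharing a protein sequence and across linkers. Negative Z-scores can be read as non-binding.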
# [2] = target: Neu5Ac(a2-6)Gal(b1-4)GlcNAc(b1-3)[Neu5Ac(a2-6)Gal(b1-4)GlcNAc(b1-6)]Gal(b1-4)Glc
# Outline: as §1
# [3] = target: Neu5Ac(a2-6)Gal(b1-4)GlcNAc(b1-6)[Gal(b1-3)GlcNAc(b1-3)]Gal(b1-4)Glc
# Outline: as §1
# [4] = target: Neu5Ac(a2-6)Gal(b1-4)[Fuc(a1-3)]GlcNAc(b1-3)Gal(b1-4)Glc
# Outline: as §1
# [5] = target: Neu5Ac(a2-6)Gal(b1-6)GalNAc(b1-4)Gal(b1-4)Glc
# Outline: as §1
# [6] = target: Neu5Ac(a2-6)Gal6S
# Outline: as §1
# [7] = target: Neu5Ac(a2-6)Gal6S(b1-4)Glc
# Outline: as §1
# [8] = target: Neu5Ac(a2-6)Gal6S(b1-4)Glc4S
# Outline: as §1
# [9] = target: Neu5Ac(a2-6)GalNAc
# Outline: as §1
# [10] = target: Neu5Ac(a2-6)Glc
# Outline: as §1
# [11] = target: Neu5Ac(a2-6)Glc6S
# Outline: as §1
# [12] = target: Neu5Ac(a2-6)GlcNAc
# Outline: as §1
# [13] = target: Neu5Ac(a2-6)GlcNAc6S
# Outline: as §1
# [14] = target: Neu5Ac(a2-8)Neu5Ac
# Outline: as §1
# [15] = target: Neu5Ac(a2-8)Neu5Ac(a2-3)Gal
# Outline: as §1
# [16] = target: Neu5Ac(a2-8)Neu5Ac(a2-3)Gal(b1-3)GalNAc(b1-4)[Neu5Ac(a2-3)]Gal(b1-4)Glc
# Outline: as §1
# [17] = target: Neu5Ac(a2-8)Neu5Ac(a2-3)Gal(b1-3)GalNAc(b1-4)[Neu5Ac(a2-8)Neu5Ac(a2-3)]Gal(b1-4)Glc
# Outline: as §1
# [18] = target: Neu5Ac(a2-8)Neu5Ac(a2-3)Gal(b1-4)Glc
# Outline: as §1
# [19] = target: Neu5Ac(a2-8)Neu5Ac(a2-3)[Gal(b1-3)GalNAc(b1-4)]Gal(b1-4)Glc
# Outline: as §1
# [20] = target: Neu5Ac(a2-8)Neu5Ac(a2-3)[GalNAc(b1-4)]Gal(b1-4)Glc
# Outline: as §1
# [21] = target: Neu5Ac(a2-8)Neu5Ac(a2-6)Gal
# Outline: as §1
# [22] = target: Neu5Ac(a2-8)Neu5Ac(a2-6)Glc
# Outline: as §1
# [23] = target: Neu5Ac(a2-8)Neu5Ac(a2-8)Neu5Ac
# Outline: as §1
# [24] = target: Neu5Ac(a2-8)Neu5Ac(a2-8)Neu5Ac(a2-3)Gal(b1-4)Glc
# Outline: as §1
# [25] = target: Neu5Ac(a2-8)Neu5Ac(a2-8)Neu5Ac(a2-6)Gal
# Outline: as §1
# [26] = target: Neu5Ac(a2-8)Neu5Ac(a2-8)Neu5Ac(a2-8)Neu5Ac
# Outline: as §1
# [27] = target: Neu5Ac(a2-8)Neu5Ac(a2-8)Neu5Ac(a2-8)Neu5Ac(a2-8)Neu5Ac
# Outline: as §1
# [28] = target: Neu5Ac(a2-8)Neu5Ac(a2-8)Neu5Ac(a2-8)Neu5Ac(a2-8)Neu5Ac(a2-8)Neu5Ac
# Outline: as §1
# [29] = target: Neu5Ac(a2-8)Neu5Ac(a2-8)Neu5Ac(a2-8)Neu5Ac(a2-8)Neu5Ac(a2-8)Neu5Ac(a2-8)Neu5Ac
# Outline: as §1
# [30] = target: Neu5Ac(a2-8)Neu5Ac(a2-8)Neu5Ac(a2-8)Neu5Ac(a2-8)Neu5Ac(a2-8)Neu5Ac(a2-8)Neu5Ac(a2-8)Neu5Ac
# Outline: as §1
# [31] = target: Neu5Ac(a2-8)Neu5Ac(a2-8)Neu5Ac(a2-8)Neu5Ac(a2-8)Neu5Ac(a2-8)Neu5Ac(a2-8)Neu5Ac(a2-8)Neu5Ac(a2-8)Neu5Ac
# Outline: as §1
# [32] = target: Neu5Ac(a2-8)Neu5Ac(a2-8)Neu5Ac(a2-8)Neu5Ac(a2-8)Neu5Ac(a2-8)Neu5Ac(a2-8)Neu5Ac(a2-8)Neu5Ac(a2-8)Neu5Ac(a2-8)Neu5Ac
# Outline: as §1
# [33] = target: Neu5Ac(a2-9)Neu5Ac(a2-3)Gal(b1-4)Glc
# Outline: as §1
# [34] = target: Neu5Ac(b2-3)Gal(b1-4)Glc
# Outline: as §1
# [35] = target: Neu5Ac(b2-6)Gal(b1-4)Glc
# Outline: as §1
# [36] = target: Neu5Ac9Ac(a2-3)Gal(b1-3)[Fuc(a1-4)]GlcNAc
# Outline: as §1
# [37] = target: Neu5Ac9Ac(a2-3)Gal(b1-4)[Fuc(a1-3)]GlcNAc
# Outline: as §1
# [38] = target: Neu5Ac9Ac(a2-3)Gal(b1-4)[Fuc(a1-3)]GlcNAc(b1-3)Gal
# Outline: as §1
# [39] = target: Neu5Ac9Ac(a2-6)Gal(b1-4)GlcNAc
# Outline: as §1
# [40] = target: Neu5Ac9Me(a2-3)Gal(b1-4)Glc
# Outline: as §1
# [41] = target: Neu5Gc(a2-3)Gal(b1-3)GlcNAc(b1-3)Gal(b1-4)Glc
# Outline: as §1
# [42] = target: Neu5Gc(a2-3)Gal(b1-4)Glc
# Outline: as §1
# [43] = target: Neu5Gc(a2-3)Gal(b1-4)[Fuc(a1-3)]GlcNAc(b1-3)Gal
# Outline: as §1
# [44] = target: Neu5Gc(a2-6)Gal(b1-3)GlcNAc(b1-3)Gal(b1-4)Glc
# Outline: as §1
# [45] = target: Neu5Gc(a2-6)Gal(b1-4)GlcNAc(b1-2)Man(a1-3)[Neu5Gc(a2-6)Gal(b1-4)GlcNAc(b1-2)Man(a1-6)]Man(b1-4)GlcNAc(b1-4)GlcNAc
# Outline: as §1
binder,measurement,setting,value
"ZG16p (Homo sapiens), O60844 (protein) ARSSSYSGEYGGGGGKRFSHSGNQLDGPITALRVRVNTYYIVGLQVRYGKVWSDYVGGRNGDLEEIFLHPGESVIQVSGKYKWYLKKLLFVTDKGRYLSFGKDSGTSFNAVPLHPNTVLRFISGRSGSLIDAIGLHWDVYPSSCSRC",glycan array binding signal (z-score),[1],-0.328
same,glycan array binding signal (z-score),[2],-0.328
same,glycan array binding signal (z-score),[3],-0.328
same,glycan array binding signal (z-score),[4],-0.328
same,glycan array binding signal (z-score),[5],-0.328
same,glycan array binding signal (z-score),[6],-0.26
same,glycan array binding signal (z-score),[7],-0.293
same,glycan array binding signal (z-score),[8],-0.328
same,glycan array binding signal (z-score),[9],-0.328
same,glycan array binding signal (z-score),[10],-0.328
same,glycan array binding signal (z-score),[11],-0.251
same,glycan array binding signal (z-score),[12],-0.141
same,glycan array binding signal (z-score),[13],-0.328
same,glycan array binding signal (z-score),[14],-0.328
same,glycan array binding signal (z-score),[15],-0.328
same,glycan array binding signal (z-score),[16],-0.328
same,glycan array binding signal (z-score),[17],-0.328
same,glycan array binding signal (z-score),[18],-0.281
same,glycan array binding signal (z-score),[19],-0.328
same,glycan array binding signal (z-score),[20],-0.328
same,glycan array binding signal (z-score),[21],-0.328
same,glycan array binding signal (z-score),[22],-0.328
same,glycan array binding signal (z-score),[23],-0.306
same,glycan array binding signal (z-score),[24],-0.328
same,glycan array binding signal (z-score),[25],-0.283
same,glycan array binding signal (z-score),[26],-0.328
same,glycan array binding signal (z-score),[27],-0.328
same,glycan array binding signal (z-score),[28],-0.328
same,glycan array binding signal (z-score),[29],-0.328
same,glycan array binding signal (z-score),[30],-0.328
same,glycan array binding signal (z-score),[31],-0.328
same,glycan array binding signal (z-score),[32],-0.328
same,glycan array binding signal (z-score),[33],-0.328
same,glycan array binding signal (z-score),[34],-0.306
same,glycan array binding signal (z-score),[35],-0.186
same,glycan array binding signal (z-score),[36],-0.328
same,glycan array binding signal (z-score),[37],-0.328
same,glycan array binding signal (z-score),[38],-0.328
same,glycan array binding signal (z-score),[39],-0.328
same,glycan array binding signal (z-score),[40],-0.328
same,glycan array binding signal (z-score),[41],-0.328
same,glycan array binding signal (z-score),[42],-0.144
same,glycan array binding signal (z-score),[43],-0.328
same,glycan array binding signal (z-score),[44],-0.328
same,glycan array binding signal (z-score),[45],-0.282
